According to PMC9911399, “Two distinct binding modes provide the RNA-binding protein RbFox with extraordinary sequence specificity”:
Residue numbers refer to the chain shown, from its start. The list shows a part of the results.

T1: RBFOX1 RRM RbFoxmut (Fox-RRM*) (Homo sapiens, UniProt Q9NWB1 109-208, R118D;E147R;N151S;E152T)
T1 sequence: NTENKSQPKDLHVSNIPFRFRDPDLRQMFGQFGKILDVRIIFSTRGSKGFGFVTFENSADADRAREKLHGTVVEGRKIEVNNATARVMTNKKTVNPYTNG

B1: CGCCUUA (DNA:RNA)
RNA: GGGAGACCGGAAUUCAGAUUGUCCCGCCUUAUUAAAUCCCGUCGUAGCCACCA
DNA 1: CAATCTGAATTCCGGTCTCCC
DNA 2: TGGTGGCTACGACGGGATT
B2: CGAGUCA (DNA:RNA)
RNA: B1 RNA with C27A, C28G, U30C
DNA 1: CAATCTGAATTCCGGTCTCCC
DNA 2: TGGTGGCTACGACGGGATT
B3: AGGCUUU (DNA:RNA)
RNA: B1 RNA with C25A, C27G, A31U
DNA 1: CAATCTGAATTCCGGTCTCCC
DNA 2: TGGTGGCTACGACGGGATT
B4: CGUACCG (DNA:RNA)
RNA: B1 RNA with C27U, C28A, U29C, U30C, A31G
DNA 1: CAATCTGAATTCCGGTCTCCC
DNA 2: TGGTGGCTACGACGGGATT
B5: CGGGGUG (DNA:RNA)
RNA: B1 RNA with C27G, C28G, U29G, A31G
DNA 1: CAATCTGAATTCCGGTCTCCC
DNA 2: TGGTGGCTACGACGGGATT
B6: AGAACAA (DNA:RNA)
RNA: B1 RNA with C25A, C27A, C28A, U29C, U30A
DNA 1: CAATCTGAATTCCGGTCTCCC
DNA 2: TGGTGGCTACGACGGGATT
B7: ACUACCA (DNA:RNA)
RNA: B1 RNA with C25A, G26C, C27U, C28A, U29C, U30C
DNA 1: CAATCTGAATTCCGGTCTCCC
DNA 2: TGGTGGCTACGACGGGATT
B8: CAGCCUU (DNA:RNA)
RNA: B1 RNA with G26A, C27G, U29C, A31U
DNA 1: CAATCTGAATTCCGGTCTCCC
DNA 2: TGGTGGCTACGACGGGATT
B9: GUGGAGA (DNA:RNA)
RNA: B1 RNA with C25G, G26U, C27G, C28G, U29A, U30G
DNA 1: CAATCTGAATTCCGGTCTCCC
DNA 2: TGGTGGCTACGACGGGATT
B10: CCCCAAC (DNA:RNA)
RNA: B1 RNA with G26C, U29A, U30A, A31C
DNA 1: CAATCTGAATTCCGGTCTCCC
DNA 2: TGGTGGCTACGACGGGATT
B11: CUGCUGC (DNA:RNA)
RNA: B1 RNA with G26U, C27G, U30G, A31C
DNA 1: CAATCTGAATTCCGGTCTCCC
DNA 2: TGGTGGCTACGACGGGATT
B12: CCCGAGU (DNA:RNA)
RNA: B1 RNA with G26C, C28G, U29A, U30G, A31U
DNA 1: CAATCTGAATTCCGGTCTCCC
DNA 2: TGGTGGCTACGACGGGATT
B13: CACCACU (DNA:RNA)
RNA: B1 RNA with G26A, U29A, U30C, A31U
DNA 1: CAATCTGAATTCCGGTCTCCC
DNA 2: TGGTGGCTACGACGGGATT
B14: UGAAGUU (DNA:RNA)
RNA: B1 RNA with C25U, C27A, C28A, U29G, A31U
DNA 1: CAATCTGAATTCCGGTCTCCC
DNA 2: TGGTGGCTACGACGGGATT
B15: UAAUCUA (DNA:RNA)
RNA: B1 RNA with C25U, G26A, C27A, C28U, U29C
DNA 1: CAATCTGAATTCCGGTCTCCC
DNA 2: TGGTGGCTACGACGGGATT
B16: CAUCAGA (DNA:RNA)
RNA: B1 RNA with G26A, C27U, U29A, U30G
DNA 1: CAATCTGAATTCCGGTCTCCC
DNA 2: TGGTGGCTACGACGGGATT
B17: CUGGGGA (DNA:RNA)
RNA: B1 RNA with G26U, C27G, C28G, U29G, U30G
DNA 1: CAATCTGAATTCCGGTCTCCC
DNA 2: TGGTGGCTACGACGGGATT
B18: AGACAAC (DNA:RNA)
RNA: B1 RNA with C25A, C27A, U29A, U30A, A31C
DNA 1: CAATCTGAATTCCGGTCTCCC
DNA 2: TGGTGGCTACGACGGGATT
B19: CAUAUGG (DNA:RNA)
RNA: B1 RNA with G26A, C27U, C28A, U30G, A31G
DNA 1: CAATCTGAATTCCGGTCTCCC
DNA 2: TGGTGGCTACGACGGGATT
B20: ACCUGUC (DNA:RNA)
RNA: B1 RNA with C25A, G26C, C28U, U29G, A31C
DNA 1: CAATCTGAATTCCGGTCTCCC
DNA 2: TGGTGGCTACGACGGGATT
B21: GGUGCAG (DNA:RNA)
RNA: B1 RNA with C25G, C27U, C28G, U29C, U30A, A31G
DNA 1: CAATCTGAATTCCGGTCTCCC
DNA 2: TGGTGGCTACGACGGGATT
B22: CGGAGAA (DNA:RNA)
RNA: B1 RNA with C27G, C28A, U29G, U30A
DNA 1: CAATCTGAATTCCGGTCTCCC
DNA 2: TGGTGGCTACGACGGGATT
B23: UCAGUCC (DNA:RNA)
RNA: B1 RNA with C25U, G26C, C27A, C28G, U30C, A31C
DNA 1: CAATCTGAATTCCGGTCTCCC
DNA 2: TGGTGGCTACGACGGGATT
B24: UACUAUU (DNA:RNA)
RNA: B1 RNA with C25U, G26A, C28U, U29A, A31U
DNA 1: CAATCTGAATTCCGGTCTCCC
DNA 2: TGGTGGCTACGACGGGATT
B25: CUGGCUC (DNA:RNA)
RNA: B1 RNA with G26U, C27G, C28G, U29C, A31C
DNA 1: CAATCTGAATTCCGGTCTCCC
DNA 2: TGGTGGCTACGACGGGATT
B26: GCAGGCU (DNA:RNA)
RNA: GGGAGACCGGAAUUCAGAUUGUCCGCAGGCUUUAAAUCCCGUCGUAGCCACCA
DNA 1: CAATCTGAATTCCGGTCTCCC
DNA 2: TGGTGGCTACGACGGGATT
B27: ACCUACA (DNA:RNA)
RNA: B1 RNA with C25A, G26C, C28U, U29A, U30C
DNA 1: CAATCTGAATTCCGGTCTCCC
DNA 2: TGGTGGCTACGACGGGATT
B28: AGCCUGG (DNA:RNA)
RNA: B1 RNA with C25A, U30G, A31G
DNA 1: CAATCTGAATTCCGGTCTCCC
DNA 2: TGGTGGCTACGACGGGATT
B29: UACUAUG (DNA:RNA)
RNA: B1 RNA with C25U, G26A, C28U, U29A, A31G
DNA 1: CAATCTGAATTCCGGTCTCCC
DNA 2: TGGTGGCTACGACGGGATT
B30: ACAAAGU (DNA:RNA)
RNA: B26 RNA with G25A, G28A, G29A, C30G
DNA 1: CAATCTGAATTCCGGTCTCCC
DNA 2: TGGTGGCTACGACGGGATT
B31: CGAGAUA (DNA:RNA)
RNA: B1 RNA with C27A, C28G, U29A
DNA 1: CAATCTGAATTCCGGTCTCCC
DNA 2: TGGTGGCTACGACGGGATT

target: T1, RBFOX1 RRM RbFoxmut (Fox-RRM*); assay: EMSA; HiTS-Eq, 1 nM pool, 10 min; buffer printed only for the single-RNA assays: 10 mM Tris pH 7.5, 150 mM NaCl, 3.4 mM EDTA, 0.001% NP-40, 30 C; conditions: tags: His6 N-terminal (pET28a); label: 5' 32P
Method in brief: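 Purified RbFox RRM, wild type or mutant, was incubated for 10 min in 50 µL with 1 nM of a 5′-radiolabelled RNA pool carrying 7 randomized nucleotides, whose flanks were annealed to DNA oligonucleotides, over a series of increasing protein concentrations. Unbound RNA was resolved on 8% native PAGE, cut out, reverse-transcribed, barcoded by PCR and sequenced on an Illumina HiSeq 2500. Relative association constants were derived from changes in read counts for each RNA species versus the control reaction and normalised to the cognate motif.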

Binder	binding signal
B1	0.132 KA relative to UGCAUGU
B2	0.0837 KA relative to UGCAUGU
B3	0.0641 KA relative to UGCAUGU
B4	0.122 KA relative to UGCAUGU
B5	0.316 KA relative to UGCAUGU
B6	0.0614 KA relative to UGCAUGU
B7	0.077 KA relative to UGCAUGU
B8	0.0828 KA relative to UGCAUGU
B9	0.118 KA relative to UGCAUGU
B10	0.0788 KA relative to UGCAUGU
B11	0.126 KA relative to UGCAUGU
B12	0.094 KA relative to UGCAUGU
B13	0.0882 KA relative to UGCAUGU
B14	0.0793 KA relative to UGCAUGU
B15	0.0413 KA relative to UGCAUGU
B16	0.0633 KA relative to UGCAUGU

Binder	binding signal
B17	0.0977 KA relative to UGCAUGU
B18	0.0526 KA relative to UGCAUGU
B19	0.0964 KA relative to UGCAUGU
B20	0.177 KA relative to UGCAUGU
B21	0.105 KA relative to UGCAUGU
B22	0.0966 KA relative to UGCAUGU
B23	0.0654 KA relative to UGCAUGU
B24	0.0732 KA relative to UGCAUGU
B25	0.14 KA relative to UGCAUGU
B26	0.0762 KA relative to UGCAUGU
B27	0.107 KA relative to UGCAUGU
B28	0.116 KA relative to UGCAUGU
B29	0.141 KA relative to UGCAUGU
B30	0.103 KA relative to UGCAUGU
B31	0.141 KA relative to UGCAUGU
